These results are taken from PMC12820563, “FoxP3 forms a head-to-head dimer in vivo and stabilizes its multimerization on adjacent microsatellites”.

This is one part of the list.

The target in this test is T1, MBP-FoxP1dN (Mus musculus, UniProt P58462 326-579).
T1 sequence: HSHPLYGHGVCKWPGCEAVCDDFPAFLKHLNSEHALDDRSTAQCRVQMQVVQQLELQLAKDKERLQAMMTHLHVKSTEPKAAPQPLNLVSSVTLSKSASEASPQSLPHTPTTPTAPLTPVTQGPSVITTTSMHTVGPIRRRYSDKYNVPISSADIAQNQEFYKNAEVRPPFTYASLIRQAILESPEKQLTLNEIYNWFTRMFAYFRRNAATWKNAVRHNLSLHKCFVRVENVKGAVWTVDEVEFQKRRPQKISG
Kind of test: PD-seq (MBP pull-down with sequencing); 20 mM Tris-HCl pH 7.5, 100 mM NaCl, 1.5 mM MgCl2, 0.4 uM protein, 0.1 uM dsDNA library, 30 min, room temperature, amylose pull-down; high values mean tight binding. To be noted: protein: recombinant; tags: His6-MBP; chain copies: 2; dsDNA, one strand shown. A digest of the protocol:
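Binding is the reads-per-million enrichment of pull-down relative to input, pooled across replicates. For this, 0.4 µM His6-MBP-tagged mouse FoxP3 or FoxP1 fragment lacking the N-terminus, made in E. coli, was incubated with 0.1 µM Klenow-filled double-stranded degenerate DNA library for 30 min at room temperature in Tris pH 7.5 buffer with NaCl and MgCl2. Complexes bound to amylose resin were washed three times before proteinase K released the DNA for PCR barcoding and Illumina sequencing.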
Turning to “GATGATTGTTCTCCCAGCTGATGAATTGTATAGTTCGAGTAAACAAATTTTCCTAATCTTTCTGTTCAAGCGCCATCTAC”, the binding signal was 1.18 RPM ratio (pull-down/input).

Turning to “GATGATTGTTCTCCCAGCTGATGAATTGGCGCGATCGAGTAAACAAATTTTCCTAATCTTTCTGTTCAAGCGCCATCTAC”, the binding signal is 0.908 RPM ratio (pull-down/input).

In the case of “GATGATTGTTCTCCCAGCTGATGAATTCCCGTCTTCGAGTAAACAAATTTTCCTAATCTTTCTGTTCAAGCGCCATCTAC”, the binding signal was 0.799 RPM ratio (pull-down/input).

For the sequence “GATGATTGTTCTCCCAGCTGATGAATTTTCCTTCTCGAGTAAACAAATTTTCCTAATCTTTCTGTTCAAGCGCCATCTAC”, the binding signal was 0.887 RPM ratio (pull-down/input).

With “GATGATTGTTCTCCCAGCTGATGAATTGGTTTCATCGAGTAAACAAATTTTCCTAATCTTTCTGTTCAAGCGCCATCTAC”, the binding signal is 1.08 RPM ratio (pull-down/input).

Take “GATGATTGTTCTCCCAGCTGATGAATTAACAGTATCGAGTAAACAAATTTTCCTAATCTTTCTGTTCAAGCGCCATCTAC”: the binding signal is 0.997 RPM ratio (pull-down/input).

In the case of “GATGATTGTTCTCCCAGCTGATGAATTGCACAACTCGAGTAAACAAATTTTCCTAATCTTTCTGTTCAAGCGCCATCTAC”, the binding signal was 1.25 RPM ratio (pull-down/input).

As for “GATGATTGTTCTCCCAGCTGATGAATTATGTACTTCGAGTAAACAAATTTTCCTAATCTTTCTGTTCAAGCGCCATCTAC”, the binding signal is 1.26 RPM ratio (pull-down/input).

For the sequence “GATGATTGTTCTCCCAGCTGATGAATTTAGTGCTTCGAGTAAACAAATTTTCCTAATCTTTCTGTTCAAGCGCCATCTAC”, the binding signal was 0.994 RPM ratio (pull-down/input).

Consider “GATGATTGTTCTCCCAGCTGATGAATTAGTCCGCTCGAGTAAACAAATTTTCCTAATCTTTCTGTTCAAGCGCCATCTAC”, for which the binding signal was 0.791 RPM ratio (pull-down/input).

As to “GATGATTGTTCTCCCAGCTGATGAATTGCCTTAATCGAGTAAACAAATTTTCCTAATCTTTCTGTTCAAGCGCCATCTAC”, the binding signal was 1.08 RPM ratio (pull-down/input).

For “GATGATTGTTCTCCCAGCTGATGAATTTTGCCTTTCGAGTAAACAAATTTTCCTAATCTTTCTGTTCAAGCGCCATCTAC”, the binding signal is 0.949 RPM ratio (pull-down/input).

For the sequence “GATGATTGTTCTCCCAGCTGATGAATTAGGACCTTCGAGTAAACAAATTTTCCTAATCTTTCTGTTCAAGCGCCATCTAC”, the binding signal was 0.839 RPM ratio (pull-down/input).

On to “GATGATTGTTCTCCCAGCTGATGAATTCAGTGAATCGAGTAAACAAATTTTCCTAATCTTTCTGTTCAAGCGCCATCTAC”, for which the binding signal is 0.944 RPM ratio (pull-down/input).

On to “GATGATTGTTCTCCCAGCTGATGAATTCGAATTCTCGAGTAAACAAATTTTCCTAATCTTTCTGTTCAAGCGCCATCTAC”, for which the binding signal is 0.733 RPM ratio (pull-down/input).

Regarding “GATGATTGTTCTCCCAGCTGATGAATTGGTCTGATCGAGTAAACAAATTTTCCTAATCTTTCTGTTCAAGCGCCATCTAC”, the binding signal is 0.895 RPM ratio (pull-down/input).

For the sequence “GATGATTGTTCTCCCAGCTGATGAATTCTCCCAGTCGAGTAAACAAATTTTCCTAATCTTTCTGTTCAAGCGCCATCTAC”, the binding signal is 0.832 RPM ratio (pull-down/input).

For “GATGATTGTTCTCCCAGCTGATGAATTCGCGAGCTCGAGTAAACAAATTTTCCTAATCTTTCTGTTCAAGCGCCATCTAC”, the binding signal was 0.793 RPM ratio (pull-down/input).

In the case of “GATGATTGTTCTCCCAGCTGATGAATTCGGGCGGTCGAGTAAACAAATTTTCCTAATCTTTCTGTTCAAGCGCCATCTAC”, the binding signal was 0.722 RPM ratio (pull-down/input).

In the case of “GATGATTGTTCTCCCAGCTGATGAATTTCGAAGTTCGAGTAAACAAATTTTCCTAATCTTTCTGTTCAAGCGCCATCTAC”, the binding signal is 0.82 RPM ratio (pull-down/input).

“GATGATTGTTCTCCCAGCTGATGAATTCCGTGCTTCGAGTAAACAAATTTTCCTAATCTTTCTGTTCAAGCGCCATCTAC”: the binding signal was 0.862 RPM ratio (pull-down/input).

Take “GATGATTGTTCTCCCAGCTGATGAATTACCTTTATCGAGTAAACAAATTTTCCTAATCTTTCTGTTCAAGCGCCATCTAC”: the binding signal is 1.05 RPM ratio (pull-down/input).

Take “GATGATTGTTCTCCCAGCTGATGAATTATTCGCTTCGAGTAAACAAATTTTCCTAATCTTTCTGTTCAAGCGCCATCTAC”: the binding signal is 0.991 RPM ratio (pull-down/input).

Take “GATGATTGTTCTCCCAGCTGATGAATTATCATTCTCGAGTAAACAAATTTTCCTAATCTTTCTGTTCAAGCGCCATCTAC”: the binding signal is 0.997 RPM ratio (pull-down/input).

Take “GATGATTGTTCTCCCAGCTGATGAATTTGGAGTGTCGAGTAAACAAATTTTCCTAATCTTTCTGTTCAAGCGCCATCTAC”: the binding signal was 0.878 RPM ratio (pull-down/input).

As for “GATGATTGTTCTCCCAGCTGATGAATTACCTCGTTCGAGTAAACAAATTTTCCTAATCTTTCTGTTCAAGCGCCATCTAC”, the binding signal was 0.946 RPM ratio (pull-down/input).

On to “GATGATTGTTCTCCCAGCTGATGAATTGGGAGGTTCGAGTAAACAAATTTTCCTAATCTTTCTGTTCAAGCGCCATCTAC”, for which the binding signal was 0.78 RPM ratio (pull-down/input).

For “GATGATTGTTCTCCCAGCTGATGAATTTGTCGTATCGAGTAAACAAATTTTCCTAATCTTTCTGTTCAAGCGCCATCTAC”, the binding signal is 1.23 RPM ratio (pull-down/input).

In the case of “GATGATTGTTCTCCCAGCTGATGAATTGCTAAGCTCGAGTAAACAAATTTTCCTAATCTTTCTGTTCAAGCGCCATCTAC”, the binding signal was 0.999 RPM ratio (pull-down/input).

For “GATGATTGTTCTCCCAGCTGATGAATTACCGGGCTCGAGTAAACAAATTTTCCTAATCTTTCTGTTCAAGCGCCATCTAC”, the binding signal was 0.841 RPM ratio (pull-down/input).

Consider “GATGATTGTTCTCCCAGCTGATGAATTCGCCTGGTCGAGTAAACAAATTTTCCTAATCTTTCTGTTCAAGCGCCATCTAC”, for which the binding signal was 0.731 RPM ratio (pull-down/input).

On to “GATGATTGTTCTCCCAGCTGATGAATTTCACATTTCGAGTAAACAAATTTTCCTAATCTTTCTGTTCAAGCGCCATCTAC”, for which the binding signal is 0.877 RPM ratio (pull-down/input).
